Assay results taken from the supplement of paper PMC12067230.
Single values of this set are uncertain.
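Note: [psi-pin-] Saccharomyces cerevisiae expressing SupN fusions, induced by 100 µM Cu2SO4, selected 7 d at 30 °C without adenine and uracil, scored by deep sequencing of output versus input.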

Test: amyloid nucleation score relative to library mode (yeast Sup35 reporter selection) (log enrichment difference); higher = more amyloid nucleation; sequences are the first 22 residues of the Bri2 peptide extended by up to 12 random residues
Conditions: random library (experiment): 1;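 active = nucleation score significantly above 0 at FDR 0.05; inactive = not significantly above 0 or absent from output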
Experimental: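 Random C-terminal extensions of the 22-aa Bri2 peptide by 12 NNK codons; premature stops give shorter extensions. Peptides were fused to the Sup35 nucleation domain in S. cerevisiae [psi-pin-] and selected on -ADE-URA plates for 7 d at 30 °C. The nucleation score is log(output/input), centred to the mode of each of 3 independent libraries (1 input, 3 technical output replicates), with duplicates merged. Sequences absent from the output ('random_non_nuc') were imputed with the library mode value, so they are given as censored (<). Nucleators are scores significantly >0 at FDR 0.05.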
Work on EASNCFAIRHFENKFAVETLICQTCSGTVFWGE yielded an amyloid nucleation score of 8.47. In the case of EASNCFAIRHFENKFAVETLICVALDSEKERRKW, the amyloid nucleation score is reported as 3.31. With EASNCFAIRHFENKFAVETLICRRKSVPGRGTQL the amyloid nucleation score was “inactive”. EASNCFAIRHFENKFAVETLICTVFMVK showed an amyloid nucleation score of 2.89. With EASNCFAIRHFENKFAVETLICKPGPSPTTSCGK the amyloid nucleation score was “inactive”. For EASNCFAIRHFENKFAVETLICYFLC, the amyloid nucleation score was 6.99. With EASNCFAIRHFENKFAVETLICRRPDGAKSCDEI the amyloid nucleation score was “inactive”. With EASNCFAIRHFENKFAVETLICLFDIASLTHFCG the amyloid nucleation score was 5. With EASNCFAIRHFENKFAVETLICDCEAL the amyloid nucleation score was “inactive”. Work on EASNCFAIRHFENKFAVETLICGVWNTVDNWLWE yielded an amyloid nucleation score of 6.99. In the case of EASNCFAIRHFENKFAVETLICRSEGVVKGGDKV, the amyloid nucleation score is reported as “inactive”. With EASNCFAIRHFENKFAVETLICCRCCTERGCV the amyloid nucleation score was 6.89. For EASNCFAIRHFENKFAVETLICGWISRVSWLQES, the amyloid nucleation score was “inactive”. EASNCFAIRHFENKFAVETLICCAYNPEDVYVWE gave an amyloid nucleation score of 9.11. With EASNCFAIRHFENKFAVETLICLYCVRNAQNSRS the amyloid nucleation score was 4.79. For EASNCFAIRHFENKFAVETLICVDGKMFSFIVG, the amyloid nucleation score was “inactive”. Work on EASNCFAIRHFENKFAVETLICCFFYPLACHCNG yielded an amyloid nucleation score of 6.56. With EASNCFAIRHFENKFAVETLICVLLWVIASVHRG the amyloid nucleation score was “inactive”. Sequence EASNCFAIRHFENKFAVETLICASMPSSPKDRES has an amyloid nucleation score of 0.376. In the case of EASNCFAIRHFENKFAVETLICFMLSM, the amyloid nucleation score is reported as 6.06. Work on EASNCFAIRHFENKFAVETLICDRSGEDADKGTS yielded an amyloid nucleation score of 7.37. For EASNCFAIRHFENKFAVETLICVLQM, the amyloid nucleation score was 6.18. With EASNCFAIRHFENKFAVETLICYSIV the amyloid nucleation score was 6.58. In the case of EASNCFAIRHFENKFAVETLICRDSGRIVKYWTE, the amyloid nucleation score is reported as “inactive”. In the case of EASNCFAIRHFENKFAVETLICEAPGDGGQKGDR, the amyloid nucleation score is reported as “inactive”. For EASNCFAIRHFENKFAVETLICYA, the amyloid nucleation score was “inactive”. For EASNCFAIRHFENKFAVETLICDRKWRVKWGLVC, the amyloid nucleation score was “inactive”. EASNCFAIRHFENKFAVETLICMCASCYLSLHSG gave an amyloid nucleation score of 4.4. For EASNCFAIRHFENKFAVETLICIGGQYERSGLWS, the amyloid nucleation score was 1.23. For EASNCFAIRHFENKFAVETLICRLKDEHVSAVEL, the amyloid nucleation score was 3.45. In the case of EASNCFAIRHFENKFAVETLICVDLRSFTLDVSA, the amyloid nucleation score is reported as “inactive”. EASNCFAIRHFENKFAVETLICKAFKARNGGSGP showed an amyloid nucleation score of -0.648. For EASNCFAIRHFENKFAVETLICRQLQDTLLMPCE, the amyloid nucleation score was “inactive”. In the case of EASNCFAIRHFENKFAVETLICNLDLVRILIGVL, the amyloid nucleation score is reported as “inactive”. With EASNCFAIRHFENKFAVETLICIQCYLSSRLM the amyloid nucleation score was “inactive”. For EASNCFAIRHFENKFAVETLICNWCFRSAKGTSA, the amyloid nucleation score was 4.75. In the case of EASNCFAIRHFENKFAVETLICHGLSRLTCRARQ, the amyloid nucleation score is reported as “inactive”. With EASNCFAIRHFENKFAVETLICGMSLRGMVWWVW the amyloid nucleation score was “inactive”. With EASNCFAIRHFENKFAVETLICGVSTSRPWVFQP the amyloid nucleation score was “inactive”. For EASNCFAIRHFENKFAVETLICRLRGRTIEWESK, the amyloid nucleation score was “inactive”. For EASNCFAIRHFENKFAVETLICPSRRSRFWSCLF, the amyloid nucleation score was “inactive”. In the case of EASNCFAIRHFENKFAVETLICRLERLYGLTVSC, the amyloid nucleation score is reported as “inactive”. With EASNCFAIRHFENKFAVETLICEEQLIIGIPSYG the amyloid nucleation score was “inactive”. In the case of EASNCFAIRHFENKFAVETLICCESELNHVCSST, the amyloid nucleation score is reported as “inactive”. With EASNCFAIRHFENKFAVETLICVPDHCMNCYCWV the amyloid nucleation score was 5.65. EASNCFAIRHFENKFAVETLICIAM gave an amyloid nucleation score of 2.91. In the case of EASNCFAIRHFENKFAVETLICVRGVREVQLESA, the amyloid nucleation score is reported as “inactive”. In the case of EASNCFAIRHFENKFAVETLICDVQNFRRDVSEP, the amyloid nucleation score is reported as “inactive”. For EASNCFAIRHFENKFAVETLICYASCMR, the amyloid nucleation score was “inactive”. EASNCFAIRHFENKFAVETLICTVMHGYCGMNGQ gave an amyloid nucleation score of 3.85. Sequence EASNCFAIRHFENKFAVETLICPLKEN has an amyloid nucleation score of -0.386. In the case of EASNCFAIRHFENKFAVETLICIVFMYARVTIVY, the amyloid nucleation score is reported as “inactive”. In the case of EASNCFAIRHFENKFAVETLICVTEAGVILNMCW, the amyloid nucleation score is reported as “inactive”. Sequence EASNCFAIRHFENKFAVETLICITCLSDHSPPAW has an amyloid nucleation score of 8.15. Work on EASNCFAIRHFENKFAVETLICMDVH yielded an amyloid nucleation score of -0.309. With EASNCFAIRHFENKFAVETLICPGDDGKTSMVRG the amyloid nucleation score was -0.129.

Same assay, conditions: random library (experiment): 2
Sequence EASNCFAIRHFENKFAVETLICVYTIRIGVHGSN has an amyloid nucleation score of 3.56. Sequence EASNCFAIRHFENKFAVETLICNCTLCMELSTIS has an amyloid nucleation score of 7.84. In the case of EASNCFAIRHFENKFAVETLICVNRAHSWHIDGS, the amyloid nucleation score is reported as 3.46. In the case of EASNCFAIRHFENKFAVETLICFGMYNHLIKANA, the amyloid nucleation score is reported as “inactive”. In the case of EASNCFAIRHFENKFAVETLICRYRMAENWTVLL, the amyloid nucleation score is reported as “inactive”. In the case of EASNCFAIRHFENKFAVETLICLFQ, the amyloid nucleation score is reported as 8.13. For EASNCFAIRHFENKFAVETLICDHVIRNRHDRGG, the amyloid nucleation score was “inactive”. In the case of EASNCFAIRHFENKFAVETLICCIRQCLTYESS, the amyloid nucleation score is reported as “inactive”. In the case of EASNCFAIRHFENKFAVETLICVGNSDSCMRVKG, the amyloid nucleation score is reported as “inactive”. With EASNCFAIRHFENKFAVETLICIIMNVRFDGAN the amyloid nucleation score was 2.02. With EASNCFAIRHFENKFAVETLICTFWNPYFSDGHL the amyloid nucleation score was “inactive”. With EASNCFAIRHFENKFAVETLICWKTR the amyloid nucleation score was “inactive”. For EASNCFAIRHFENKFAVETLICPRMESGHVRRCG, the amyloid nucleation score was 0.462. For EASNCFAIRHFENKFAVETLICGNFASRCTLFGY, the amyloid nucleation score was “inactive”. With EASNCFAIRHFENKFAVETLICCSMEHVRVMRSI the amyloid nucleation score was 5.77. EASNCFAIRHFENKFAVETLICIVYRD gave an amyloid nucleation score of 5.42. In the case of EASNCFAIRHFENKFAVETLICWKFI, the amyloid nucleation score is reported as 6.11. For EASNCFAIRHFENKFAVETLICLLQSLEDWFVMG, the amyloid nucleation score was “inactive”. With EASNCFAIRHFENKFAVETLICAHE the amyloid nucleation score was “inactive”. For EASNCFAIRHFENKFAVETLICCRVSMERGRRPM, the amyloid nucleation score was “inactive”. EASNCFAIRHFENKFAVETLICIRLSCFEYSMSR gave an amyloid nucleation score of 3.63. For EASNCFAIRHFENKFAVETLICNGKPYRVGRDS, the amyloid nucleation score was “inactive”. Work on EASNCFAIRHFENKFAVETLICNLIRCDSSDGPS yielded an amyloid nucleation score of 6.99. In the case of EASNCFAIRHFENKFAVETLICGSYADFGLRVVA, the amyloid nucleation score is reported as “inactive”. For EASNCFAIRHFENKFAVETLICVDWDFSPFILAV, the amyloid nucleation score was -0.658. For EASNCFAIRHFENKFAVETLICNDKFTEYINC, the amyloid nucleation score was 1.37. Sequence EASNCFAIRHFENKFAVETLICCIFN has an amyloid nucleation score of 8.69. EASNCFAIRHFENKFAVETLICNMFRICLYMV gave an amyloid nucleation score of 4.79. For EASNCFAIRHFENKFAVETLICRKLMRS, the amyloid nucleation score was “inactive”. In the case of EASNCFAIRHFENKFAVETLICLDGIG, the amyloid nucleation score is reported as “inactive”. In the case of EASNCFAIRHFENKFAVETLICGNLKTLCVFTVS, the amyloid nucleation score is reported as “inactive”. With EASNCFAIRHFENKFAVETLICVSM the amyloid nucleation score was “inactive”. With EASNCFAIRHFENKFAVETLICLRSMIVSCGCHA the amyloid nucleation score was “inactive”. For EASNCFAIRHFENKFAVETLICVLWT, the amyloid nucleation score was 5.41. For EASNCFAIRHFENKFAVETLICKDRVRWSCYWCV, the amyloid nucleation score was “inactive”. EASNCFAIRHFENKFAVETLICCNDCMVFSIIGS gave an amyloid nucleation score of 7.82. Work on EASNCFAIRHFENKFAVETLICVKMVMSHNRDSK yielded an amyloid nucleation score of 0.315. With EASNCFAIRHFENKFAVETLICHKVY the amyloid nucleation score was “inactive”. In the case of EASNCFAIRHFENKFAVETLICMKYRIEKNAYKC, the amyloid nucleation score is reported as “inactive”.

Same assay, conditions: random library (experiment): 3
EASNCFAIRHFENKFAVETLICFVARATTKYTST gave an amyloid nucleation score of 2.97. With EASNCFAIRHFENKFAVETLICQELLFTCARC the amyloid nucleation score was “inactive”. For EASNCFAIRHFENKFAVETLICHDMNG, the amyloid nucleation score was “inactive”. In the case of EASNCFAIRHFENKFAVETLICAYFATWDDVSA, the amyloid nucleation score is reported as “inactive”. EASNCFAIRHFENKFAVETLICRAAGLFKATCCV showed an amyloid nucleation score of 0.44. In the case of EASNCFAIRHFENKFAVETLICVPWRNSIVLYEG, the amyloid nucleation score is reported as “inactive”. For EASNCFAIRHFENKFAVETLICQAQGMTNGCMGA, the amyloid nucleation score was “inactive”. With EASNCFAIRHFENKFAVETLICFHALPLLAPLSG the amyloid nucleation score was “inactive”. In the case of EASNCFAIRHFENKFAVETLICKGKIGFRGLCTC, the amyloid nucleation score is reported as “inactive”. With EASNCFAIRHFENKFAVETLICGVGH the amyloid nucleation score was “inactive”. For EASNCFAIRHFENKFAVETLICGAGKLNARVRAR, the amyloid nucleation score was “inactive”. For EASNCFAIRHFENKFAVETLICCGLERGRAWFDA, the amyloid nucleation score was 6.78. With EASNCFAIRHFENKFAVETLICAYLQRLNTRHMA the amyloid nucleation score was “inactive”. With EASNCFAIRHFENKFAVETLICPVRVPLIWIISS the amyloid nucleation score was “inactive”. EASNCFAIRHFENKFAVETLICGLVAVQAGPCWP gave an amyloid nucleation score of 6.78. For EASNCFAIRHFENKFAVETLICDLLSASVAAWSG, the amyloid nucleation score was 0. For EASNCFAIRHFENKFAVETLICAQRKAGGKERWS, the amyloid nucleation score was “inactive”. Sequence EASNCFAIRHFENKFAVETLICYRCNASLLDSCH has an amyloid nucleation score of 4.33. In the case of EASNCFAIRHFENKFAVETLICYDHGQLVSSSDR, the amyloid nucleation score is reported as “inactive”. In the case of EASNCFAIRHFENKFAVETLICPSGNDGQGFVGV, the amyloid nucleation score is reported as “inactive”. In the case of EASNCFAIRHFENKFAVETLICFIDVLYLNFNTD, the amyloid nucleation score is reported as “inactive”.
